# Laboratory results published in PubChem BioAssay AID485297 (National Center for Advancing Translational Sciences (NCATS), 2010).
# “And” between values parts separate entries of the source, which are not always exact repeats. Identical values can stand only once. The campaign covered roughly 320,000 compounds. About 9,100 (2.8%) were called active. The inconclusive results got no clear call from the source; some entries with a clear call stand among them for comparison. Calls follow the shape of the dose curve; as a rule, active = well fitted activation curve with a large enough effect; inconclusive = small, poorly fitted or top-dose-only effect; inactive = no such curve, though single readings can be large or run the other way. Potencies of inconclusive entries are left out as doubtful fits.
# Assay: qHTS Assay for Rab9 Promoter Activators; also: nearly all actives have a fitted effect of over 60% in size; as to activation, negative = inhibition: % of control where 0% means no effect
# Details: Huh7 Rab9 promoter-luciferase reporter, luminescence, 24 h; series mostly up to 9.22 µM; activation, negative = inhibition: at the top concentration
# Outline: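 Huh7 cells stably carrying a Rab9 promoter-luciferase reporter, 1500 cells per well in OP-MEM I with 10% FBS, treated with compound 24 hours at 37C. Luciferase activity read by luminescence after 10 minutes with Amplite reagent.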
# Potency is read from the fitted curve at half-maximal effect; tags tell the direction and shape of the fitted curve.
SMILES,Potency,"activation, negative = inhibition"
O=C1c2ccccc2CN1CCSC(=S)N1CCOCC1,active: 3.55 µM,–
C#CCN1C(=O)S/C(=C/c2cc(C)n(CC)c2C)C1=O,active: 1.58 µM,–
COc1cc(/C=N/N=C(N)N)ccc1OCc1ccc(Cl)cc1,"inconclusive [activator, partial curve]",–
Cc1cc(C)c2c(c1)NC(c1cc3c(cc1Br)OCO3)C1CC=CC21 (stereo unspecified),–,inactive: 0.75%
Cc1nc2c(ccc3c2ccc2nc(C)sc23)s1,"inconclusive [activator, single point]",–
O=c1c2c3c(sc2nc2n1CCCCC2)CCCCC3,active: 3.55 µM,–
CCn1c(SCC#N)nc2ccccc2c1=O,"inconclusive [activator, single point]",–
COc1cccc(N/N=C/c2cccc(Br)c2O)c1,"inconclusive [activator, single point]",–
O=C(Nc1ccc2c(c1)CCC2)C1CCCN(c2ncccn2)C1 (stereo unspecified),"inconclusive [activator, full curve]",–
CCOC(=O)C1(Cc2cccc(F)c2)CCN(C(=O)COC)CC1,–,inactive: 1.49%
Cc1cc(N2CCN(Cc3ccccc3)CC2)n2nc(C)c(-c3ccccc3)c2n1,–,inactive: -6.03%
COc1ccc(N=CC2=C(O)c3ccccc3C2=O)c(OC)c1,active: 0.708 µM,–
Cc1c(O)ccc(C(=O)COc2ccc(F)cc2)c1O,active: 5.01 µM,–
COC(=O)c1sccc1NC(=O)c1cc2c(s1)CCCC2,"inconclusive [activator, partial curve, poor fit]",–
Nc1c(-c2ccc(Cl)cc2)cnn1-c1cccc([N+](=O)[O-])c1,"inconclusive [activator, partial curve]",–
Cc1nn2c(-c3ccccc3)nnc2c2ccccc12,"inconclusive [activator, single point]",–
CC(C)(C)C(=O)C(Cl)C(=O)Nc1ccccc1 (stereo unspecified),–,inactive: -0.398%
c1ccc(-c2ccc(-c3csnn3)cc2)cc1,active: 2 µM,–
CN1CCN(C(=O)c2ccc(COc3ccc(C(C)(C)C)cc3)o2)CC1,"inconclusive [activator, single point]",–
N#Cc1c(N2CCOCC2)nsc1-c1ccccc1,"inconclusive [activator, single point]",–
COC(CNC(=O)c1ccc2c3c(onc13)-c1ccccc1C2=O)OC,"inconclusive [activator, partial curve]",–
Cc1ccc(NC(=O)NC(=O)CN2CCC(C(N)=O)CC2)c(C)c1,"inconclusive [activator, single point]",–
Cc1sc2nc[nH]c(=O)c2c1-c1ccc(Cl)cc1,–,inactive: -3.76%
O=C(Nc1sc2c(c1C(=O)NCc1ccco1)CCCC2)c1ccc2c(c1)OCO2,"inconclusive [activator, single point]",–
Cc1ccc(OCC(=O)Nc2ccc3c(c2)OCO3)c([N+](=O)[O-])n1,"inconclusive [activator, single point]",–
CCCCn1cnc2c(cnn2-c2ccc(F)cc2)c1=O,"inconclusive [activator, partial curve]",–

SMILES,Potency,"activation, negative = inhibition"
Cc1ccc(S(=O)(=O)N(C)C)cc1NC(=O)CN1C(=O)NC2(CCCCCCC2)C1=O,–,inactive: 0.352%
COc1ccc(/C=N\Nc2ccccn2)c(OC)c1,"inconclusive [activator, single point]",–
CSc1ccc(/C=C/C(=O)c2ccc(O)cc2)cc1,"inconclusive [activator, single point]",–
COc1ccc(N2CC(O)=C(c3nc(-c4ccc(F)cc4)cs3)C2=N)cc1OC,"inconclusive [activator, single point]",–
Cc1cccnc1NC(=O)c1cccc(NC(=O)CC2SC(N3CCCCC3)=NC2=O)c1 (stereo unspecified),–,inactive: -1.12%
C/C(=N\NC(=O)c1c(Cl)cnn1C)c1cccc(NC(=O)c2ccc(C)cc2)c1,"inconclusive [activator, partial curve]",–
COc1ccc(OCC(=O)OC2CCN(C)CC2)cc1,"inconclusive [activator, partial curve]",–
COc1ccccc1C(=O)NNC(=O)c1sccc1-n1cccc1,"inconclusive [activator, single point]",–
c1ccc(CSCc2nc3ccccc3[nH]2)cc1,active: 2.51 µM,–
Cc1ccnc(NC(=O)c2cccc(S(=O)(=O)N3CCN(c4ccccc4)CC3)c2)c1,"inconclusive [activator, single point]",–
CC(C)(C(=O)O)n1cncn1,–,inactive: 1.42%
COC(=O)c1ccc2c(c1)C(=O)/C(=C/c1ccc(C)cc1)O2,"inconclusive [activator, single point]",–
CCN(CC(=O)Nc1ccc(NC(C)=O)cc1)C(=O)/C=C/c1c(C)nn(-c2ccc(F)cc2)c1C,–,inactive: 3.72%
NC(=O)c1cccc(-c2noc(-c3ccccc3F)n2)c1,active: 501 nM and active: 794 nM,–
COc1ccc(/C=N/NC(=O)c2c(-c3ccccc3)noc2C)cc1,–,inactive: -3.95%
COc1ccc(C(=O)Nc2ccc(-c3n[nH]c(=S)o3)cc2)cc1,"inconclusive [activator, single point]",–
O=C(Nc1ccc(NC(=O)C2CC2)nc1)c1ccccc1F,"inconclusive [activator, full curve]",–
COc1ccccc1NC(=O)c1ccc(-c2ccccc2F)o1,"inconclusive [activator, single point]",–
O=C(Nc1nnc(CCc2ccccc2)s1)c1ccccc1F,"inconclusive [activator, partial curve]",–
C/C(=N\NC(=O)c1ccccc1O)c1ccc(Br)s1,"inconclusive [activator, partial curve]",–
O=C(Nc1ccc2oc(-c3ccccc3)nc2c1)c1cccs1,active: 2.51 µM,–
COc1ncccc1-c1nnn(-c2ccc(F)cc2)n1,active: 3.98 µM,–
O=C(CCS(=O)(=O)c1ccc(F)cc1)N1CCN(c2ccccc2)CC1,"inconclusive [activator, partial curve]",–
O=C(/C=C/c1ccccc1)c1ccc2c(c1)OCO2,"inconclusive [activator, partial curve]",–
Nc1n[nH]c(N)c1N=Nc1ccc(F)cc1,"inconclusive [activator, single point]",–
O=C(NCC1CCCO1)C1CCN(S(=O)(=O)Cc2ccccc2)CC1 (stereo unspecified),–,inactive: -1.07%

SMILES,Potency,"activation, negative = inhibition"
CCOC(=O)c1cc(-c2ccccc2)sc1NC(=O)C(C)C,–,inactive: -2.2%
COc1ccc(Nc2oc(-c3ccc(Cl)cc3)nc2C#N)cc1,"inconclusive [activator, single point]",–
O=C(COC(=O)c1cccc(Br)c1)Nc1cccc2c1C(=O)c1ccccc1C2=O,"inconclusive [activator, partial curve]",–
O=C(NCc1ccco1)c1ccc2c(c1)C(=O)c1ccccc1-2,–,inactive: 16%
COc1ccc(S(=O)(=O)N2CCN(c3cc(-c4ccccc4)nc4ncnn34)CC2)cc1,–,inactive: -5.44%
CN(c1cccc(NC(=O)c2ccc(N(C)S(=O)(=O)c3ccccc3)cc2)c1)S(C)(=O)=O,–,inactive: -15.9%
CCc1c(C(=O)OCc2ccccc2)[nH]c(C)c1C,"inconclusive [activator, single point]",–
O=C(Nc1cccnc1)c1ccc(-c2ccccc2)cc1,"inconclusive [activator, single point]",–
CCn1nnc(NC(=O)c2ccccc2Br)n1,"inconclusive [activator, single point]",–
CC(=O)c1cnc2nc(SCc3ccccc3C)nn2c1C,"inconclusive [activator, partial curve]",–
COc1cc(OC)cc(C(=O)/C=C2\Sc3ccccc3N2C)c1,"inconclusive [activator, partial curve]",–
CCN(CC(=O)Nc1sc2c(c1C#N)CCC(C)C2)CC(=O)NC1CCS(=O)(=O)C1 (stereo unspecified),–,inactive: 2.14%
O=c1c2ccccc2nc2sc3ccccc3n12,active: 3.98 µM,–
C/C(=N/Nc1ccccc1[N+](=O)[O-])c1ccc(C)c([N+](=O)[O-])c1,"inconclusive [activator, partial curve]",–
COc1ccc(-n2c(N)c(C(=O)NCc3ccco3)c3nc4ccccc4nc32)cc1OC,–,inactive: 1.88%
O=C(NCCNC(=O)c1ccccc1Br)c1ccccc1Br,–,inactive: 0.619%
COc1ccc(NC(=O)C2C3CC/C=C\CCC32)cc1 (stereo unspecified),"inconclusive [activator, partial curve]",–
CCOc1ccccc1-c1nnc(SCC(=O)Nc2ccccc2)o1,"inconclusive [activator, single point]",–
CCOc1ccc(OCc2ccc(C(=O)O)o2)cc1,active: 0.282 µM,–
CCOc1ccc(NC(=S)c2ccc3ccccc3n2)cc1,"inconclusive [activator, single point]",–
S=C(Nc1ccc2c(c1)OCO2)N1CCCC1,"inconclusive [activator, single point]",–
O=C(Nc1ccccc1F)c1ccc(OCc2ccccc2)cc1,"inconclusive [activator, single point]",–
CCN(CCCNC(=O)c1nn(C)c2c1CS(=O)(=O)c1ccccc1-2)Cc1ccccc1,–,inactive: -1.44%
O=[N+]([O-])c1cc([N+](=O)[O-])c(Oc2cccnc2Br)cc1NN1CCCCC1,"inconclusive [activator, full curve]",–
